Screen size: about 310,000 compounds; about 2,200 (0.71%) showed an effect of 50% or more. The effect is printed as a negative number. The list shows a part of the results.
Target: human ether-à-go-go-related gene (hERG) potassium channel (human, UniProt Q12809)
Experiment: primary screen, population patch clamp on CHO cells stably expressing hERG

Sequence of human ether-à-go-go-related gene (hERG) potassium channel (Q12809 whole entry, looked up): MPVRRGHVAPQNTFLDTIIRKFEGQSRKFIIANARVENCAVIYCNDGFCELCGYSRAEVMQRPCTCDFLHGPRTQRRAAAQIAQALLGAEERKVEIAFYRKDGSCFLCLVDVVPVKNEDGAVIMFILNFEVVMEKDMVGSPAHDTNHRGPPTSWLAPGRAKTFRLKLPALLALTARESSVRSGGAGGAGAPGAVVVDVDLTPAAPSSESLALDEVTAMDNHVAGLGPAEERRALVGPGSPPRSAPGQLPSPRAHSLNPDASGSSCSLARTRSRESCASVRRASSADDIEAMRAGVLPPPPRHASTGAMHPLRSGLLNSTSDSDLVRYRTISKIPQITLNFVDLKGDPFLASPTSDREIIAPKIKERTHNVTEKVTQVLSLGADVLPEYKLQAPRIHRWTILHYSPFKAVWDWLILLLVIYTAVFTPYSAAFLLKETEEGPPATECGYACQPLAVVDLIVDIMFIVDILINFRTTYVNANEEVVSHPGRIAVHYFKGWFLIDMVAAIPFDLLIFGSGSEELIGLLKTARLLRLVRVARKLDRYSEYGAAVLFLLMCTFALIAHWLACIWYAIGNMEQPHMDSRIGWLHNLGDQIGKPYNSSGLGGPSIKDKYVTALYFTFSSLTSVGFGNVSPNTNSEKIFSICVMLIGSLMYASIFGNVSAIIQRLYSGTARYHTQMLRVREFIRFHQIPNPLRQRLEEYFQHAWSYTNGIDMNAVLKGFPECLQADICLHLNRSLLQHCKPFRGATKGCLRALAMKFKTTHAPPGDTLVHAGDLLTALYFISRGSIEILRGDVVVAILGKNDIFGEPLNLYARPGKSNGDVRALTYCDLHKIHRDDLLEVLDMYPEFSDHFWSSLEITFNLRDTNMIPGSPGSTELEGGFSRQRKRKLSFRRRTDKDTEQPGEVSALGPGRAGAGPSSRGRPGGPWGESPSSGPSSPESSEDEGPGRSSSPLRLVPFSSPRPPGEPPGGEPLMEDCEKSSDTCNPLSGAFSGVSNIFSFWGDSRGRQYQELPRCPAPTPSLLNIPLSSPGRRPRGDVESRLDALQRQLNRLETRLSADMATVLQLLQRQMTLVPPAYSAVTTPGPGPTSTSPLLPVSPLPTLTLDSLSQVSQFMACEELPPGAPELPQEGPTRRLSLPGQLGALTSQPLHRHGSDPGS

Row | Compound | hERG current change (%, negative = inhibition) at 1uM [%]
1 | O=C(NCCc1ccccc1)c1c(O)c2cccc3c2n(c1=O)CC3 | -0.679
2 | CC(=O)Nc1ccc(NS(=O)(=O)c2ccc3c(c2)n(C)c(=O)n3C)cc1 | 12
3 | CCOC(=O)c1ccc(NC(=S)NCc2ccco2)cc1 | 6.12
4 | CCCCCCSc1cccc(-c2nc3cc(C)ccn3c2NCc2ccccc2)c1.O=C(O)C(F)(F)F | 9
5 | Cc1cc(C)cc(NC(=O)CCc2nc3ccccc3[nH]2)c1 | 7.3
6 | CCOC(=O)C1CCN(Cc2cccc(OC)c2)CC1 | 12.4
7 | COc1ccc(C2NC(=S)NC(C)=C2C(=O)N2CCOCC2)cc1 (centres unmarked) | 10.5
8 | C=CCn1c(SCC(=O)NCC2CCCO2)nc2c([nH]c3ccccc32)c1=O (centres unmarked) | 10.2
9 | Cl.Cn1c(=N)n(CC(O)c2cccs2)c2ccccc21 (centres unmarked) | -7.58
10 | CC(=O)Oc1c(C)c2c3c(c1OC(C)=O)[C@@H](C)CC[C@@H]3[C@@H](C)C[C@H]2C=C(C)C | 11.1
11 | CC(C)c1ccc(/C=C/C(=O)NC(=S)Nc2ccc(CN3CCOCC3)cc2)cc1 | 17.5
12 | Cc1cccc(Cn2c(O)c(N=NC(=S)Nc3ccccc3F)c3ccccc32)c1 | 8.64
13 | Cn1nnc2c[n+](CC(=O)c3ccc4ccccc4c3)cc(Br)c21.[Br-] | -3.01
14 | CSc1nc(C)c(CCOC(=O)c2ccccc2)c(=O)[nH]1 | 6.43
15 | COCCn1c(=NC(=O)c2sc3ccccc3c2Cl)sc2cc(S(N)(=O)=O)ccc21 | 5.41
16 | CCN(CC(=O)Nc1ccc(OC)cc1)C(=O)c1ccccc1Sc1ccccc1C#N | 15.1
17 | Cc1cc(C)n(CCNC(=O)c2cc(COc3ccc(F)cc3Cl)on2)n1 | 3.24
18 | O=C(NC1CCCCCC1)c1cccs1 | 6.48
19 | C/C(CC(=O)NCCCN1CCOCC1)=N\NC(=O)COc1ccc(Cl)cc1 | 10.2
20 | CCSc1ncc(/C=N/Nc2ccccc2)n1C | -3.84
21 | Cc1cc(C)c2nc(N3CCC(C(=O)N4CCCC4)CC3)sc2c1 | -15.1
22 | CCc1cccc(NC(=O)CN(C)C2=NS(=O)(=O)c3ccccc32)c1 | 14
23 | O=S(=O)(C=C(c1ccccc1)c1ccccc1)c1ccccc1 | 1.9

Row | Compound | hERG current change (%, negative = inhibition) at 1uM [%]
24 | COc1cccc(Nc2nnc(SCC(=O)N3CCOCC3)s2)c1 | -3.22
25 | COC(=O)c1cn(NC(=O)Cc2cccc(OC)c2)c(=O)c2ccccc12 | 8.2
26 | COc1cc(/C=N/N=C(/N)c2nonc2N)cc(Br)c1OCc1ccccc1C | -4.22
27 | COc1cccc(OCC(=O)NNC(=O)C(=O)Nc2cccc(C)c2)c1 | 7.02
28 | CCOC(=O)c1cc([N+](=O)[O-])c([N+](=O)[O-])cc1NC(C)=O | 16.6
29 | O=C(c1cccc(S(=O)(=O)N2CCOCC2)c1)N1CCCc2ccccc21 | 11.9
30 | CCC1CCCCN1C(=S)NCc1ccccc1 (centres unmarked) | 2.42
31 | Cc1ccnc(NC(=O)CCC2CCCCC2)c1 | 3.7
32 | CC1Cc2ccccc2N1S(=O)(=O)c1cnc[nH]1 (centres unmarked) | 13.2
33 | O=C(COc1ccc2c3c(c(=O)oc2c1)CCC3)Nc1ccc(CN2CCOCC2)cc1 | 10.7
34 | COC(=O)c1cc(NC(=S)NCc2ccc(Cl)cc2)cc(C(=O)OC)c1 | 4.71
35 | CCc1ccc(Nc2ncc3c(n2)CC(C)CC3=O)cc1 (centres unmarked) | 8.87
36 | C/C(=N\Nc1cccc(Cl)c1)c1ccncc1 | 0.861
37 | Cc1nn(-c2ccccc2)c(N2CCCC2)c1/C=N/NC(=O)c1cc(-c2cccs2)nc2ccccc12 | 8.03
38 | O=C(NCCCn1ccnc1)c1nc(Cn2cc([N+](=O)[O-])cn2)no1 | 11.1
39 | NC(=O)Nn1c(CCC(=O)O)ccc1-c1ccc(F)cc1 | 16.8
40 | CC(NC(=O)OCc1ccccc1)c1ccccc1 (centres unmarked) | 5.36
41 | Cc1nn(-c2ccccc2)cc1C(=S)Nc1ccccc1 | 0.119
42 | C=CCSC1=N/C(=C\c2ccsc2)C(=O)S1 | -0.756
43 | CCN(C(=O)CN1C(=O)NC(c2ccccc2)(c2ccccc2)C1=O)c1ccccc1 | 10
44 | COCCNC(=O)c1c(N)n(Cc2ccco2)c2nc3ccccc3nc12 | 9.18
45 | CC(=O)c1c(C)oc(C)c1CSCc1ccc(C(=O)O)o1 | 4.74
46 | Cc1ccc(NC(=O)C2C(c3ccccc3)C2(Cl)Cl)c(C)c1 (centres unmarked) | 2.95

Row | Compound | hERG current change (%, negative = inhibition) at 1uM [%]
47 | O=C(CSc1nnc(CNc2ccc(F)cc2)o1)N1c2ccccc2Sc2ccccc21 | 12.7
48 | O=c1c2cc(N3CCOCC3)ccc2[nH]c(=S)n1CCCN1CCCCC1 | -5.49
49 | COc1cccc(N2CCN(C(=O)C3CCN(S(=O)(=O)c4ccc5c(c4)oc(=O)n5C)CC3)CC2)c1 | 10.5
50 | Cc1ccc(-c2cc3c(N=O)c4ccccc4c-3n[nH]2)cc1 | 16.6
51 | Cc1ccc(S(=O)(=O)N2CCCCC2)cc1NC(=O)Cn1cc(C(F)(F)F)ccc1=O | 8.63
52 | CC(=O)Nc1ccc(S(=O)(=O)Nc2cccc(NC(=O)c3ccco3)c2)cc1 | 21.6
53 | Cc1[nH]n(-c2ccccc2)c(=O)c1N=Nc1cccc(C(=O)O)c1 | 14.2
54 | COc1cccc(-n2ccnc2SCC(=O)N2CCc3ccccc32)c1 | 6.4
55 | CSCCC(NC(=O)c1ccccc1)C(=O)Nc1ccc(C)cc1 (centres unmarked) | 13
56 | CN1CCN(CCCNC(=O)CCc2nnc3n(Cc4ccccc4Cl)c(=O)c4ccccc4n23)CC1 | 15.6
57 | Fc1cccc(Cl)c1-c1nnc2ccc(N3CCOCC3)nn12 | 0.573
58 | O=C(CN1C(=O)c2ccccc2C1=O)N1CCOCC1 | -0.632
59 | CC(=C\C(=O)O)/C(=C/c1ccccc1)C(=O)O | 14.1
60 | Cc1nn(C)c(C)c1NS(=O)(=O)c1ccc(OC(F)(F)F)cc1 | 13.8
61 | O=C1CN(C(=O)COC(=O)C23CC4CC(CC(O)(C4)C2)C3)c2ccccc2N1 | 9.31
62 | C/C(=N\Nc1cccc2ccccc12)c1c(O)n(Cc2ccccc2)c(=O)[nH]c1=O | 20.8
63 | Cc1ccc(OCC(O)CNS(=O)(=O)c2ccccc2C(=O)O)cc1 (centres unmarked) | 11.7
64 | O=C(NC1CCCCC1)c1ccc(-n2cnnn2)cc1 | 8.39
65 | O=C(COC(=O)CCS(=O)(=O)c1ccccc1)Nc1ccccc1 | 0.18
66 | O=C(c1ccco1)n1nc(-c2ccccc2)nc1SCc1ccccc1 | 7.86
67 | O=C(CN1CCCCC1)NCC(=O)Nc1ccc(F)c(F)c1F | 11.5
68 | O=C(CN1CCN(C/C=C/c2ccccc2)CC1)NC(=O)NC1CCCCC1 | -69.7
69 | COc1ccc(C)cc1S(=O)(=O)N(CC(=O)O)c1ccccc1 | 8.53

Row | Compound | hERG current change (%, negative = inhibition) at 1uM [%]
70 | Cl.O=C(CN1CCOCC1)n1c2c(c3ccccc31)CCCC2 | 3.34
71 | CCc1cc(C(=O)NCC(c2ccco2)N2CCCCC2)sc1C (centres unmarked) | 5.44
72 | Cc1cc(=O)c2ccccc2[nH]1 | 3.6
73 | CCC(C)[C@H](NC(=O)N1CCCCCC1)C(=O)OC (some centres unmarked) | 6.13
74 | C=C1CCC2[C@](C)(CO)[C@H](O)CC[C@@]2(C)[C@@H]1C/C=C1\C(=O)OC[C@H]1O (some centres unmarked) | 14.1
75 | CN(C(=O)CN1C(=O)NC2(CCc3ccccc32)C1=O)C1CCS(=O)(=O)C1 (centres unmarked) | 14.9
76 | CCOC(=O)C(C)n1cnc2c(nnn2-c2cccc(OC)c2)c1=O (centres unmarked) | 16.7
77 | COc1ccc(NC(=O)C2CCCN2S(=O)(=O)c2cccc3cccnc23)cc1OC (centres unmarked) | 13.8
78 | O=C(O)C(=O)O.c1ccc(CCNc2nc(-c3ccccn3)cs2)cc1 | 8.72
79 | Cc1ccc2c(c1C)OC(=O)CC2(C)C | 16.6
80 | COc1ccc(N2CCN(C3CC(=O)N(c4ccc5c(c4)OCCO5)C3=O)CC2)cc1 (centres unmarked) | -5.46
81 | COc1ccc(CNC(=O)Cn2ncn3cccc3c2=O)cc1 | 3.74
82 | CC(C)NC(=O)Cn1c(SCC(=O)N2CCCCCC2)nc2ccccc21 | 7.07
83 | CS(=O)(=O)N1CCN(c2ccccc2NC(=O)CSc2ccc(Cl)cc2)CC1 | 6.65
84 | Cc1cc(OCCCn2ccnc2)ccc1[N+](=O)[O-].O=C(O)C(=O)O | 9.12
85 | Cc1ccc(C2=NC3(CCCC3)N=C2SCC(=O)Nc2ccc3c(c2)OCCO3)cc1 | 2.62
86 | CCN1CCN(C(c2ccccc2)c2nnnn2Cc2ccc3c(c2)OCO3)CC1.Cl (centres unmarked) | -19.9
87 | C=CCc1cccc(C=Nc2cc(Br)ccc2O)c1O | 15.2
88 | Cc1ccc(S(=O)(=O)N/N=C/c2cccc3c2OCCO3)cc1 | -2.33
89 | CSc1cccc(NC(=O)C2C3C=CC4(O3)C2C(=O)N(CCCN2CCOCC2)C4C(=O)NC2CCCCC2)c1 (centres unmarked) | 8.89

— publication PMC4336329 (PLoS ONE, 2015)
